What was measured:
Human GLP-1R = target: T1, Human GLP-1R (Homo sapiens, UniProt P43220); test: HTRF cAMP assay in HEK-293 cells, human GLP-1R; format: cell-based
T1 construct: expressed in transfected cells; host or cells: HEK-293
Description: (§1) Recombinant HEK-293 cells were grown in T175 culture flasks placed at 37° C. to near confluence in medium (DMEM with 10% FBS) and collected in 2 mL vials in cell culture medium containing 10% DMSO in concentrations of 1-5×10^7 cells/mL. Each vial contained 1.8 mL cell suspension. The vials were slowly frozen to −80° C. in an isopropanol chamber, and then transferred to liquid nitrogen for long term storage.
(§2) Prior to their use, frozen cells were thawed quickly at 37° C., washed with 20 mL cell buffer (1×HBSS; 20 mM HEPES, 0.1% BSA) and centrifuged for 5 minutes at 900 rpm. Cells were resuspended in assay buffer (cell buffer plus 2 mM IBMX) and adjusted to a cell density of 1×10^6 cells/mL. For measurement, 5 μL cell suspension (final 5×10^3 cells/well) and 5 μL of test compound were added to a well of a 384-well plate, followed by incubation for 30 minutes at room temperature. […] The cAMP content of cells was determined using a kit from Cisbio Corp. (cat. no. 62AM4PEC) based on Homogenous Time Resolved Fluorescence (HTRF).

Mouse GLP-1R = target: T2, Mouse GLP-1R (Mus musculus, UniProt O35659); test: HTRF cAMP assay in HEK-293 cells, mouse GLP-1R; format: cell-based
T2 construct: expressed in transfected cells; host or cells: HEK-293
T2 sequence (O35659 22-463): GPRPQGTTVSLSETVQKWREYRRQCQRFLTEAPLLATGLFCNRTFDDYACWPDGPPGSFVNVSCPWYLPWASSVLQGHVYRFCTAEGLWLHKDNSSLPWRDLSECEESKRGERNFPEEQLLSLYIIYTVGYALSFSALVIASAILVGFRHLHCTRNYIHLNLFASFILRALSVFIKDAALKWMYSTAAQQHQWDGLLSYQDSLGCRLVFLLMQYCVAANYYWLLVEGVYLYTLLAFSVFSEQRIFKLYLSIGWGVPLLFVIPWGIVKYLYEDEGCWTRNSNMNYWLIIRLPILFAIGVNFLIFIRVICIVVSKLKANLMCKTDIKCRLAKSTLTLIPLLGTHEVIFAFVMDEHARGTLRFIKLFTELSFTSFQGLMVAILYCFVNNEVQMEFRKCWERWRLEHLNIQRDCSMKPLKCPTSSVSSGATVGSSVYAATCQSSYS
Description: as §1, §2

Monkey GLP-1R = target: T3, Monkey GLP-1R (Macaca fascicularis, UniProt F8V479); test: HTRF cAMP assay in HEK-293 cells, monkey GLP-1R; format: cell-based
T3 construct: expressed in transfected cells; host or cells: HEK-293
Description: as §1, §2

[1] = Conformational and thermal stability on UNit (intrinsic fluorescence and static light scattering); format: physicochemical; conditions: 5 mg/mL in phosphate buffer pH 7.4; for Tagg (aggregation onset temperature): UNit SLS 266 nm; for Tm (melting temperature): UNit
Description: Conformational stability and propensity to aggregate was determined simultaneously for the GLP-1RA/FGF21 Fc fusion proteins using a UNit (Unchained Labs, Calif., USA). The UNit combines the analysis of intrinsic fluorescence of a protein or polypeptide to detect unfolding of the protein or polypeptide and a Static Light Scattering (SLS) measurement in order to investigate aggregation behavior.
Data were acquired for the fusion proteins at a concentration of 5 mg/mL formulated in phosphate buffer at pH 7.4. A volume of 9 μL of each sample were loaded into a UNi capillary holder and analyzed in triplicate on the UNit. The temperature was increased from 20 to 95° C. at a constant linear rate of 0.3° C./minutes. The BaryCentric Mean (BCM) indicating the intrinsic fluorescence and SLS signals detected with a 266 nm laser were plotted against the applied temperature in order to obtain melting temperatures (Tm) and aggregation onset temperatures (Tagg). Data were analyzed using the UNit Analysis software v.

[2] = Pharmacokinetics after single subcutaneous administration in mouse; format: in vivo, female C57BI/6 mice; conditions: 0.3 mg/kg subcutaneous
Description: (§3) Plasma concentrations and pharmacokinetic parameters of GLP-1 RA/FGF21 Fc fusion proteins were determined after single subcutaneous administration of 0.3 mg/kg in solution to female C57BI/6 mice or male Cynomolgus monkeys using three different methods. Blood samples were obtained at time points from 30 minutes to 168 hours after dosing. […]
(§4) a.) Bioanalytical Screening Method for Quantification of the Intact FGF21 Part of the GLP-1 RA/FGF21 Fc Fusion Proteins Plasma samples were analyzed for the intact FGF21 part of the fusion proteins with an ELISA kit (F1231-K01, Eagle Biosciences, USA). The assay utilized the two-site sandwich technique with two selected antibodies that bound to different epitopes of human intact FGF21. One of the antibodies specifically bounds to the N-terminal amino acids (aa) 29-35 of human FGF21 and the other antibody specifically bound to the C-terminus (aa 203-209) of human FGF21. Assay standards, controls and unknown samples were added directly to wells of microplate that is coated with an anti-human FGF21 (aa 29-35)-specific antibody. Simultaneously, a horseradish peroxidase conjugated anti-human FGF21 (aa 203-209)-specific antibody was added to each well. After the first incubation period, the antibody on the walls of microtiter wells captured human FGF21 in the sample and unbound protein in each microtiter well is washed away. […] For the detection of this immunocomplex, the well was then incubated with a substrate solution in a timed reaction and then measured in a spectrophotometric microplate reader. […]
(§5) b.) Bioanalytical Screening Method for Quantification of the Intact Full-Length Fusions Proteins The concentration of the full-length GLP-1RA/FGF21 Fc fusion proteins in plasma were determined utilizing an ELISA method. […] Following washing 3 times with 300 μL PBS-T 150 μL read buffer was added to the wells. […]
(§6) c.) Bioanalytical Screening Method for Quantification of the Intact GLP-1 Part of the GLP-1 FGF21 Fc Fusion Proteins Plasma samples were analyzed for the intact GLP-1 part of the fusion proteins with a GLP-1 ELISA method. […]

[3] = Pharmacokinetics after single subcutaneous administration in non-human primate; format: in vivo, male Cynomolgus monkeys; conditions: 0.3 mg/kg subcutaneous
Description: as §3, §4, §5, §6

T1 sequence (P43220 24-463): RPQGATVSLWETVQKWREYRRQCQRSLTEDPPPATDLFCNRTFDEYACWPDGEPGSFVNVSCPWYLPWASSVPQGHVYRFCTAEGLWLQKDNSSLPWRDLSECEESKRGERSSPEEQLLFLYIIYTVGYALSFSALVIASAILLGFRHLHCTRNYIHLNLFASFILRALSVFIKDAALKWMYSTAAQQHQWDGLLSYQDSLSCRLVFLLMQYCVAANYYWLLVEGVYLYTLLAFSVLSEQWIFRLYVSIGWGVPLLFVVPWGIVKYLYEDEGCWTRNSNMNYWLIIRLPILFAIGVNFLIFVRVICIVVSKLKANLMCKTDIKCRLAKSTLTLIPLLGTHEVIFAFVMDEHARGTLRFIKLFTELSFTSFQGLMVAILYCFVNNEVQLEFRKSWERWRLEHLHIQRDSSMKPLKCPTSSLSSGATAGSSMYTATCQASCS
T3 sequence (F8V479 24-463): as the sequence (P43220 24-463) above, with S112N, F120S, S202G, L205V, L237F, W241R, I249V counted along it

B1: 1 (protein)
chain: HGEGTFTSDLSKQLEEERVQLFIEWLKATGPSSGAPPPSGGGGGGGSGGGGSGGGGSA[… human IgG1 Fc with changes …]GGGSGSAHPIPDSSPLLQFGGQVRQRYLYTDDACQTEAHLEIREDGTVGGAADQSPESLLQLKALKPGVIQILGVKTSRFLCQRPDGALYGSLHFDPEACSFRELLLEDGYNVYQSEAHGLPLHLPGCKSPHRDPAPRGPARFLPLPGLPPAPPEPPGILAPQPPDVGSSDPLSMVGSQGRSPSYAS
modifications: Fusion Protein
EC50 (Human GLP-1R): 0.219 nM | EC50 (Mouse GLP-1R): 0.0028 nM | EC50 (Monkey GLP-1R): 0.161 nM | Tagg (aggregation onset temperature) [1]: 75.5 °C | Tm (melting temperature) [1]: 70.5 °C

B2: 2 (protein)
chain: HGEGTFTSDLSKQLEEERVQLFIEWLKATGPSSGAPPPSGGGGGGGSGGGGSGGGGSA[… human IgG1 Fc with changes …]GGGSGSAHPIPDSSPLLQFGGQVRQRYLYTDDACQTEAHLEIREDGTVGGAADQSPESLLQLKALKPGVIQILGVKTSRFLCQRPDGALYGSLHFDPEACSFRELLLEDGYNVYQSEAHGLPLHLPGCKSPHRDPAPRGPARFLPLPGLPPAPPEPPGILAPQPPDVGSSDPLSMVYPSQGRSPSYAS
modifications: Fusion Protein
EC50 (Human GLP-1R): 0.194 nM | EC50 (Mouse GLP-1R): 0.00293 nM | EC50 (Monkey GLP-1R): 0.164 nM | Tagg (aggregation onset temperature) [1]: 71.5 °C | Tm (melting temperature) [1]: 69.6 °C | t1/2 mouse ([2]; FGF21 intact assay): 27.6 h | t1/2 mouse ([2]; GLP-1 intact assay): 27.8 h | t1/2 mouse ([2]; full-length assay): 16.1 h | t1/2 monkey ([3]; FGF21 intact assay): 42.5 h | t1/2 monkey ([3]; GLP-1 intact assay): 33.4 h | t1/2 monkey ([3]; full-length assay): 23.5 h

B3: 4 (protein)
chain: HGEGTFTSDLSKQLEEERVQLFIEWLKATGPSSGAPPPSGGGGGGGSGGGGSGGGGSA[… human IgG4 Fc with changes …]GGGSGSAHPIPDSSPLLQFGGQVRQRYLYTDDACQTEAHLEIREDGTVGGAADQSPESLLQLKALKPGVIQILGVKTSRFLCQRPDGALYGSLHFDPEACSFRELLLEDGYNVYQSEAHGLPLHLPGCKSPHRDPAPRGPARFLPLPGLPPAPPEPPGILAPQPPDVGSSDPLSMVGSQGRSPSYAS
modifications: Fusion Protein
EC50 (Human GLP-1R): 0.313 nM | EC50 (Mouse GLP-1R): 0.00529 nM | EC50 (Monkey GLP-1R): 0.262 nM | Tagg (aggregation onset temperature) [1]: 64.0 °C | Tm (melting temperature) [1]: 64.9 °C

B4: 6 (protein)
chain: HGEGTFTSDLSKQLEEERVQLFIEWLKATGPSSGAPPPSGGGGGGGSGGGGSGGGGSA[… human IgG4 Fc with changes …]GGGSGSAHPIPDSSPLLQFGGQVRQRYLYTDDACQTEAHLEIREDGTVGGAADQSPESLLQLKALKPGVIQILGVKTSRFLCQRPDGALYGSLHFDPEACSFRELLLEDGYNVYQSEAHGLPLHLPGCKSPHRDPAPRGPARFLPLPGLPPAPPEPPGILAPQPPDVGSSDPLSMVYPSQGRSPSYAS
modifications: Fusion Protein
EC50 (Human GLP-1R): 0.383 nM | EC50 (Mouse GLP-1R): 0.00645 nM | EC50 (Monkey GLP-1R): 0.347 nM | Tagg (aggregation onset temperature) [1]: 63.4 °C | Tm (melting temperature) [1]: 64.1 °C

B5: 39 (protein)
chain: HGEGTFTSDLSIQLEEEAVQEFIEWLLATGPSSGAPPPSGGGGGGGSGGGGSGGGGSA[… human IgG1 Fc with changes …]GGGSGSAHPIPDSSPLLQFGGQVRQRYLYTDDACQTEAHLEIREDGTVGGAADQSPESLLQLKALKPGVIQILGVKTSRFLCQRPDGALYGSLHFDPEACSFRELLLEDGYNVYQSEAHGLPLHLPGCKSPHRDPAPRGPARFLPLPGLPPAPPEPPGILAPQPPDVGSSDPLSMVGSQGRSPSYAS
modifications: Fusion Protein
EC50 (Human GLP-1R): 0.0085 nM | EC50 (Mouse GLP-1R): 0.00116 nM | EC50 (Monkey GLP-1R): 0.0123 nM

Source: patent US20230250147A1, “GLP-1R AGONISTIC PEPTIDES WITH REDUCED ACTIVITY” (SANOFI, priority 2020, published 2023)
